# Measurements taken from PubChem BioAssay AID1508624 (National Center for Advancing Translational Sciences (NCATS), 2021).
# Screen size: about 48,000 compounds; about 120 (0.25%) were called active. About 4% were inconclusive and are not listed. Calls come from the whole dose curve; as a rule, active = well fitted activation curve with a large enough effect; inconclusive = small, poorly fitted or top-dose-only effect, or another doubt; inactive = no such curve, though single readings can be large or run the other way. The list shows a part of the results.
# Assay: Primary qHTS for Identification of Small Molecule Activators of Huntingtin-Antisense Promoter Activity; note: nearly all actives have a fitted effect of over 55% in size
# Settings: HEK293 HTT-AS promoter firefly luciferase reporter (activity 0% = vehicle and -100% = no light), 24 h; series mostly up to 57.5 µM; activity change, positive = activation: at the top concentration
# Summary of the method: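 Luminescence was read after Dual-Glo reagent and a 10 min room-temperature incubation. Values were normalized to vehicle (0% activity) and zero RLU (-100% activity). Reporter HEK293 cells had been exposed to compounds (up to 57.5 uM final) for 24 h.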
row,Structure (SMILES),"activity change, positive = activation"
1,Cc1ccc(-c2cnc(C3CC3)o2)cc1S(=O)(=O)Nc1cccc(C#N)c1,inactive: -60.8%
2,COC(=O)c1ccc2c(c1)sc(=NC(=O)c1ccc(S(=O)(=O)N3CCCCC3)cc1)n2C,inactive: 0.392%
3,CN(Cc1ccccc1)C(=O)CSc1c2c(nc3ccc(Cl)cc13)CCCC2,inactive: -48.2%
4,Cc1ccc(-c2c(CN3CCN(c4cccc(C)c4C)CC3)csc2C)cc1,inactive: -17.8%
5,Cc1ccc(NC(=O)c2cccc(C(C)(C)C#N)c2)cc1Nc1ccc2ncn(C)c(=O)c2c1,inactive: -30.9%
6,O=C(COc1ccc(F)cc1)Nc1ccc(OCc2cc(=O)n3ccsc3n2)cc1,inactive: -2.65%
7,Cc1ccc(CNC(=O)CN2Cc3ccccc3C2=O)cc1,inactive: 6.48%
8,Cc1ccccc1NC(=O)Cn1c(=O)n(CCC(=O)N2CCc3ccccc3C2)c(=O)c2ccccc21,inactive: -12.1%
9,CCC1CN(C(=O)N2CCC(C(=O)NCCCc3ccccc3)CC2)c2cc(C)ccc2O1 (configuration not stated),inactive: -42%
10,COc1ccc(NS(=O)(=O)c2cc(-c3onc(C)c3C)ccc2C)c(OC)c1,inactive: -41.2%
11,COc1ccc(NC(=O)CCS(=O)(=O)c2cc3c(cc2C)NC(=O)CO3)cc1Cl,inactive: -7.56%
12,CCCc1cnc2c(c1SCC(=O)Nc1ccc([N+](=O)[O-])cc1)c(=O)n(C)c(=O)n2C,inactive: -19.6%
13,Cc1ccc(Cl)cc1NC(=O)c1sc2nc(C)c(C)c(C)c2c1N,inactive: 21.7%
14,CCOC(=O)c1ccccc1NC(=O)N(Cc1ccc(CC)cc1)Cc1cn[nH]c1-c1ccc(OC)cc1,inactive: -11.7%
15,N#Cc1ccccc1Cn1c(SCC(=O)NCc2ccccc2)nc2ccccc21,inactive: -11.7%
16,CCOc1ccc(CCNC(=O)CSCc2nc(-c3cccc(C)c3)oc2C)cc1OCC,inactive: -28.6%
17,CCc1cccc2c(-c3ccccc3)nc(SCC(=O)Nc3ccc(OC)cc3)nc12,inactive: -7.12%
18,CC1CCN(C(=O)Cn2c(=O)n(-c3ccc(Cl)cc3)c(=O)c3c4c(sc32)CCC4)CC1,inactive: -1.82%
19,C[N+](C)(C)CC(=O)O,inactive: -10.2%
20,CCOc1ccc2nc(NC(=O)c3nc(SC(C)C)ncc3Cl)sc2c1,inactive: 9.57%
21,O=C(Cn1c(=O)c2cccn2c2ccc(F)cc21)NCc1cccc(Cl)c1,inactive: -10.8%
22,O=C(O)c1ccccc1C(=O)Nc1ccc(S(=O)(=O)Nc2nccs2)cc1,inactive: -13.2%
23,CC(C)N(Cc1ccccc1)S(=O)(=O)c1ccc(N2CCCCS2(=O)=O)cc1,inactive: -15.3%
24,CN(C)S(=O)(=O)c1ccc(C(=O)N(Cc2cccnc2)c2nc3c(F)cc(F)cc3s2)cc1,inactive: -19.9%

row,Structure (SMILES),"activity change, positive = activation"
1,CC(C)NC(=O)CCSc1nc(-c2ccc3c(c2)OCO3)cc(C(F)(F)F)n1,inactive: -40.9%
2,Cc1cccc(C)c1NC(=O)CSc1nc(-c2cccs2)cc(C(F)(F)F)n1,inactive: -12.3%
3,Cc1cn2c(=O)cc(COc3ccc(C(C)(C)C)cc3)nc2s1,inactive: -18%
4,CC(C)CCn1c(SCc2c(F)cccc2Cl)nc2ccsc2c1=O,inactive: -7.18%
5,O=C(Nc1ccc(F)c(Cl)c1)C1CCCN(S(=O)(=O)c2cccc3nsnc23)C1 (configuration not stated),inactive: -38.9%
6,CN(c1nccc(=O)[nH]1)C1CCN(c2nc3ccccc3n2Cc2ccc(F)cc2)CC1,inactive
7,CCOc1ccccc1N(CC)C(=O)c1ccc2c(=O)n3c(nc2c1)CCCCC3,inactive: -17.4%
8,CCOC(=O)c1cc2c(=O)n3ccccc3nc2n(CC(C)C)c1=NC(=O)C(C)Oc1ccccc1 (configuration not stated),inactive: 15.1%
9,Cc1ccc(Nc2ccc(N3CCN(C(=O)c4ccc([N+](=O)[O-])cc4Cl)CC3)nn2)cc1,inactive: -28.6%
10,CCOc1ccc(NC(=O)CCS(=O)(=O)c2cc3c4c(c2)CCN4C(=O)CC3)cc1,inactive: -0.401%
11,CCc1ccccc1NC(=O)CCc1c(C)nc2cc(-c3ccccc3)nn2c1C,inactive: -56.9%
12,Cc1nnc(N2CCN(C(=O)Nc3cc(F)ccc3F)CC2)c2nn(-c3ccc(Cl)cc3)c(C)c12,inactive: -51.3%
13,CC(=O)OC(C)OC(=O)C(C)c1ccc(-c2ccccc2)c(F)c1 (configuration not stated),inactive: 2.64%
14,O=C(NC1CC(=O)N(c2ccc(Cl)cc2)C1)C(=O)c1c[nH]c2ccccc12 (configuration not stated),inactive: -28.2%
15,CC(=O)N1CCc2c(sc3c2c(=O)n(CCc2ccccc2)c(=O)n3Cc2ccc(F)cc2)C1,inactive: -41.5%
16,Cc1ccccc1NC(=O)Cn1c(=O)n(CCCCCC(=O)NCc2ccc3c(c2)OCO3)c(=O)c2sccc21,inactive: -31.3%
17,Cc1c(Cl)cccc1NC(=O)CSc1nc(=O)n(CCN2CCOCC2)c2c1CCC2,inactive: -13.2%
18,CCOc1ccc(NC(=O)c2sc3nc(-c4ccc(OC)cc4)cn3c2C)cc1,inactive: 8.96%
19,COc1ccc(-n2ccn(CC(=O)Nc3ccccc3C(F)(F)F)c(=O)c2=O)cc1OC,inactive: 0.474%
20,COc1cc(NC(=O)C2CCCN(S(=O)(=O)c3cn(C)cn3)C2)cc(OC)c1 (configuration not stated),inactive: -6.73%
21,O=C(COc1ccccc1)OCc1cc(=O)n2nc(-c3cccs3)sc2n1,inactive: 9.22%
22,CC(C)OC(=O)OCOP(=O)(CO[C@H](C)Cn1cnc2c(N)ncnc21)OCOC(=O)OC(C)C,inactive
23,Cc1c(Cl)cccc1NC(=O)c1cc2nc(-c3ccc4c(c3)OCO4)cc(C(F)(F)F)n2n1,inactive: -5.7%
